{
  "source": "paper PMC9236144",
  "about": "(Molecular Biology of the Cell, 2022)",
  "binders": {"B1": {"name": "Bnr1-LC (Bnr1 […], with the αT helix), Alexa 488-labeled (domain or fragment)", "chain": "not shown", "modifications": "Alexa 488 label (site not stated)"}},
  "target": "T1, Bud6C (Bud6 residues 550-789) (S. cerevisiae, UniProt P41697 550-788)",
  "T1 sequence (looked up)": "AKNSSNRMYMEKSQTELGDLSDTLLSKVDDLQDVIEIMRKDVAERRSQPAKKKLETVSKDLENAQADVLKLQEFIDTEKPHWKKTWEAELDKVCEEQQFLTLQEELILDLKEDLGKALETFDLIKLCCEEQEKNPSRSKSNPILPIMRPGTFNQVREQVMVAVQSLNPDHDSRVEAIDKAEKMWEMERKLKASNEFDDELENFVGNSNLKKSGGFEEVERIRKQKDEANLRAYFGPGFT",
  "assay": "fluorescence polarisation",
  "data": [
    {"binder": "B1", "values": [
      {"measurement": "binding result", "result": "binds"}
    ]}
  ]
}
